The other results are listed elsewhere or left out.
Assays:
Test in all cases: glycan array binding signal (z-score within array); higher = stronger binding
Conditions in all cases: glycan notation: IUPAC condensed, linker removed
Gal3S(b1-4)Glc = target: Gal3S(b1-4)Glc
In short: (§1)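 Glycan array data were curated from 3228 arrays in the Consortium for Functional Glycomics database and kept only where the protein sequence was available. Glycan names were converted to IUPAC-condensed notation, and columns mapping to the same glycan were averaged. The binding signal is a within-array Z-score, averaged across arrays of the same protein sequence at different concentrations or buffers and across linkers. Negative Z-scores can be read as non-binding.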

Gal3S(b1-4)Glc6S = target: Gal3S(b1-4)Glc6S
In short: as §1

Gal3S(b1-4)GlcNAc = target: Gal3S(b1-4)GlcNAc
In short: as §1

[1] = target: Gal3S(b1-4)[Fuc(a1-3)]Glc6S
In short: as §1

[2] = target: Gal3S(b1-4)[Fuc(a1-3)]GlcNAc
In short: as §1

[3] = target: Gal3S(b1-4)[Fuc(a1-3)]GlcNAc6S
In short: as §1

Gal3S4S(b1-4)GlcNAc = target: Gal3S4S(b1-4)GlcNAc
In short: as §1

Gal3S6S(b1-4)GlcNAc = target: Gal3S6S(b1-4)GlcNAc
In short: as §1

Gal3S6S(b1-4)GlcNAc6S = target: Gal3S6S(b1-4)GlcNAc6S
In short: as §1

Gal4S(b1-4)GlcNAc = target: Gal4S(b1-4)GlcNAc
In short: as §1

Gal4S6S(b1-4)GlcNAc = target: Gal4S6S(b1-4)GlcNAc
In short: as §1

Gal6P(b1-4)GlcNAc = target: Gal6P(b1-4)GlcNAc
In short: as §1

Gal6S(b1-3)GlcNAc = target: Gal6S(b1-3)GlcNAc
In short: as §1

Gal6S(b1-3)GlcNAc6S = target: Gal6S(b1-3)GlcNAc6S
In short: as §1

Gal6S(b1-4)Glc = target: Gal6S(b1-4)Glc
In short: as §1

Gal6S(b1-4)Glc6S = target: Gal6S(b1-4)Glc6S
In short: as §1

Gal6S(b1-4)GlcNAc = target: Gal6S(b1-4)GlcNAc
In short: as §1

Gal6S(b1-4)GlcNAc6S = target: Gal6S(b1-4)GlcNAc6S
In short: as §1

GalNAc(a1-3)Gal = target: GalNAc(a1-3)Gal
In short: as §1

GalNAc(a1-3)GalNAc = target: GalNAc(a1-3)GalNAc
In short: as §1

[4] = target: GalNAc(a1-3)GalNAc(b1-3)Gal(a1-4)Gal(b1-4)Glc
In short: as §1

[5] = target: GalNAc(a1-3)GalNAc(b1-3)Gal(a1-4)Gal(b1-4)GlcNAc
In short: as §1

GalNAc(b1-3)Gal = target: GalNAc(b1-3)Gal
In short: as §1

[6] = target: GalNAc(b1-3)Gal(a1-4)Gal(b1-4)GlcNAc
In short: as §1

[7] = target: GalNAc(b1-3)Gal(a1-4)Gal(b1-4)GlcNAc(b1-3)Gal(b1-4)Glc
In short: as §1

[8] = target: GalNAc(b1-3)Gal(a1-6)Gal(b1-4)Glc
In short: as §1

GalNAc(b1-3)GalNAc = target: GalNAc(b1-3)GalNAc
In short: as §1

GalNAc(b1-3)GlcNAc = target: GalNAc(b1-3)GlcNAc
In short: as §1

GalNAc(b1-4)Gal(b1-4)Glc = target: GalNAc(b1-4)Gal(b1-4)Glc
In short: as §1

GalNAc(b1-4)GlcNAc = target: GalNAc(b1-4)GlcNAc
In short: as §1

[9] = target: GalNAc(b1-4)GlcNAc(b1-2)Man
In short: as §1

[10] = target: GalNAc(b1-4)GlcNAc(b1-2)Man(a1-3)[GalNAc(b1-4)GlcNAc(b1-2)Man(a1-6)]Man(b1-4)GlcNAc(b1-4)GlcNAc
In short: as §1

[11] = target: GalNAc(b1-4)GlcNAc(b1-3)GalNAc(b1-4)GlcNAc
In short: as §1

GalNAc(b1-4)GlcNAc6S = target: GalNAc(b1-4)GlcNAc6S
In short: as §1

GalNAc(b1-6)GalNAc = target: GalNAc(b1-6)GalNAc
In short: as §1

GalNAc3S(b1-4)GlcNAc = target: GalNAc3S(b1-4)GlcNAc
In short: as §1

GalNAc3S(b1-4)GlcNAc3S = target: GalNAc3S(b1-4)GlcNAc3S
In short: as §1

B1: Cohesin-hLangerin (Homo sapiens) (protein)
chain: LDDLDAVRIKVDTVNAKPGDTVRIPVRFSGIPSKGIANCDFVYSYDPNVLEIIEIEPGDIIVDPNPDKSFDTAVYPDRKIIVFLFAEDSGTGAYAITKDGVFATIVAKVKEGAPNGLSVIKFVEVGGFANNDLVEQKTQFFDGGANVGDTTEPATPTTPVTTPTTTDDLDAASYPRFMGTISDVKTNVQLLKGRVDNISTLDSEIKKNSDGMEAAGVQIQMVNESLGYVRSQFLKLKTSVEKANAQIQILTRSWEEVSTLNAQIPELKSDLEKASALNTKIRALQGSLENMSKLLKRQNDILQVVSQGWKYFKGNFYYFSLIPKTWYSAEQFCVSRNSHLTSVTSESEQEFLYKTAGGLIYWIGLTKAGMEGDWSWVDDTPFNKVQSARFWIPGEPNNAGNNEHCGNIKAPSLQAWNDAPCDKTFLFICKRPYVPSEPHHHHHH
glycan array binding signal (z-score) (Gal3S(b1-4)Glc): 0.737 | glycan array binding signal (z-score) (Gal3S(b1-4)Glc6S): -0.135 | glycan array binding signal (z-score) (Gal3S(b1-4)GlcNAc): -0.253 | glycan array binding signal (z-score) [1]: -0.395 | glycan array binding signal (z-score) [2]: -0.297 | glycan array binding signal (z-score) [3]: 0.275 | glycan array binding signal (z-score) (Gal3S4S(b1-4)GlcNAc): -0.417 | glycan array binding signal (z-score) (Gal3S6S(b1-4)GlcNAc): -0.287 | glycan array binding signal (z-score) (Gal3S6S(b1-4)GlcNAc6S): -0.352 | glycan array binding signal (z-score) (Gal4S(b1-4)GlcNAc): -0.43 | glycan array binding signal (z-score) (Gal4S6S(b1-4)GlcNAc): -0.385 | glycan array binding signal (z-score) (Gal6P(b1-4)GlcNAc): -0.264 | glycan array binding signal (z-score) (Gal6S(b1-3)GlcNAc): 3.37 | glycan array binding signal (z-score) (Gal6S(b1-3)GlcNAc6S): 5.12 | glycan array binding signal (z-score) (Gal6S(b1-4)Glc): 1.29 | glycan array binding signal (z-score) (Gal6S(b1-4)Glc6S): 4 | glycan array binding signal (z-score) (Gal6S(b1-4)GlcNAc): 3.76 | glycan array binding signal (z-score) (Gal6S(b1-4)GlcNAc6S): 4.85 | glycan array binding signal (z-score) (GalNAc(a1-3)Gal): -0.36 | glycan array binding signal (z-score) (GalNAc(a1-3)GalNAc): -0.361 | glycan array binding signal (z-score) [4]: -0.438 | glycan array binding signal (z-score) [5]: -0.244 | glycan array binding signal (z-score) (GalNAc(b1-3)Gal): -0.151 | glycan array binding signal (z-score) [6]: -0.058 | glycan array binding signal (z-score) [7]: -0.036 | glycan array binding signal (z-score) [8]: -0.252 | glycan array binding signal (z-score) (GalNAc(b1-3)GalNAc): -0.366 | glycan array binding signal (z-score) (GalNAc(b1-3)GlcNAc): -0.31 | glycan array binding signal (z-score) (GalNAc(b1-4)Gal(b1-4)Glc): -0.296 | glycan array binding signal (z-score) (GalNAc(b1-4)GlcNAc): -0.176 | glycan array binding signal (z-score) [9]: -0.36 | glycan array binding signal (z-score) [10]: -0.354 | glycan array binding signal (z-score) [11]: -0.088 | glycan array binding signal (z-score) (GalNAc(b1-4)GlcNAc6S): -0.167 | glycan array binding signal (z-score) (GalNAc(b1-6)GalNAc): -0.351 | glycan array binding signal (z-score) (GalNAc3S(b1-4)GlcNAc): -0.444 | glycan array binding signal (z-score) (GalNAc3S(b1-4)GlcNAc3S): -0.439
